Results taken from article PMC6919601, “Identification of Plasmodium dipeptidyl aminopeptidase allosteric inhibitors by high throughput screening” (PLoS ONE, 2019).
The campaign covered roughly 110,000 compounds. About 230 (0.21%) showed an effect of 50% or more. Some of the results follow.

Target: DPAP1 (Plasmodium falciparum, UniProt Q8IIJ9)
Test: primary screen, percent inhibition; read by cleavage of a fluorogenic dipeptide substrate; higher = more effect of the substance
Set-up: species or system P. falciparum D10 trophozoite lysates; single well
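Note: 30 min substrate incubation versus DMSO and 10 µM JCP410 controls.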

Chain of DPAP1 (Q8IIJ9 whole entry, looked up): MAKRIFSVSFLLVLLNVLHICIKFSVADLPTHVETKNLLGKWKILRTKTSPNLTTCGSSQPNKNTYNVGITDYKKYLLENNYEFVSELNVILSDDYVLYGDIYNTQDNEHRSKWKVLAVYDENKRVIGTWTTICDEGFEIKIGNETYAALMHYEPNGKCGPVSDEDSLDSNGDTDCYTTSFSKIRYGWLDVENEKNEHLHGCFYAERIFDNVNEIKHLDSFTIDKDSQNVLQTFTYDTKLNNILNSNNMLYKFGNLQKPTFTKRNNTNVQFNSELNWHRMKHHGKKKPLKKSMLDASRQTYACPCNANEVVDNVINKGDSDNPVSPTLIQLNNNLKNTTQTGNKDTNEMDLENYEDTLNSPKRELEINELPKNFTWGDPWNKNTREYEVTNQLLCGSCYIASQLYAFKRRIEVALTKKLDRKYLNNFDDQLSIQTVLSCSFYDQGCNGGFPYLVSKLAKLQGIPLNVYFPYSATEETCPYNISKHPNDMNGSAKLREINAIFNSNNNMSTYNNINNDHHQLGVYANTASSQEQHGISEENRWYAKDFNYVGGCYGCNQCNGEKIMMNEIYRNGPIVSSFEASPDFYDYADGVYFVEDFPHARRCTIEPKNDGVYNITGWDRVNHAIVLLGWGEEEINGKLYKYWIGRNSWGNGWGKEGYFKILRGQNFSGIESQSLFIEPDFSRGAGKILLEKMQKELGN

Row | Structure (SMILES) | % Inhibition @ 10 uM [%]
1 | CC[C@H](NC(=O)[C@H](C)NC(=O)c1ccc(-c2ccccc2Cl)c(Cl)c1)C(=O)c1nc2ccccc2o1 | -1.5
2 | CC(C)(C)C1CCC(NCCCN2CCCC2=O)CC1 (stereo not shown) | 1.57
3 | Cn1c(SCc2ccc(Cl)cc2)nc2c1c(=O)[nH]c(=O)n2C | 3.05
4 | CN1CCN(C(=O)c2nc(-c3ccc(Cl)cc3)n3c2CCCCC3)CC1 | 6.14
5 | Cc1cc(C)cc(NS(=O)(=O)c2ccc(NC(=O)c3ccco3)cc2)c1 | -5.21
6 | O=C(NC1CCCC1)c1nnc(-c2ccc3c(c2)OCO3)o1 | -3.49
7 | c1cc[n+](Cc2nc3ccccc3[nH]2)cc1 | -1.84
8 | CC1(O)N(Cc2ccccc2)C(=O)OC12CCCCC2 (stereo not shown) | 0.317
9 | CC(C)C[C@H](NC(=O)c1ccc2cc(N)ccc2c1)C(=O)NCC#N | -1.82
10 | Cn1c(=O)c(-c2cc([N+](=O)[O-])ccc2N)nc2ccccc21 | -4.11
11 | Cc1cc(C)cc(C(=O)NCCSc2c[nH]c3ccccc23)c1 | 1.23
12 | O=C1NC(=O)N(c2ccc(Cl)cc2)C(=O)/C1=C\NC12CN3CN(CN(C3)C1)C2 | -2.16
13 | COc1ccc(CCNC(=O)C2NC(=O)CC2c2ccccc2)cc1OC (stereo not shown) | 0.166
14 | CCOc1ccc(/C=C2\SC(N3CCCC3)=NC2=O)cc1 | -2.98
15 | Cc1ccc(SC(C)C(=O)NCC2CCCO2)cc1 (stereo not shown) | 0.749
16 | CS(=O)(=O)/C=C/[C@H](CCCCN)NC(=O)[C@@H](Cc1nc[nH]n1)NC(=O)c1ccc(Br)cc1 | 13.6
17 | Cn1ccnc1SCC(=O)c1ccc(-c2ccccc2)cc1 | 1.02
18 | COc1cccc(CNC(=O)Cn2c(=O)c3cccn3c3cccnc32)c1OC | -6.92
19 | CCOC(=O)c1c(C)c(-c2ccccc2)n(CC(=O)N(CC)Cc2ccccc2)c1C | 1.72
20 | COc1cc(C2C(C#N)=C(N)N(c3cccnc3)C3=C2C(=O)CCC3)cc(OC)c1OC (stereo not shown) | -0.725
21 | CC(NC(=O)NCc1ccccc1)c1c(-n2cccc2)sc2c1CCCC2 (stereo not shown) | 5.39
22 | CC[C@@H](NC(=O)[C@H](CCS(=O)(=O)c1ccccc1)NC1=NS(=O)(=O)c2ccccc21)C(=O)c1nc(-c2ccccc2)no1 | 4.54
23 | N#CCNC(=O)[C@H](CSCc1ccccc1)NC(=O)N1CCN(C(=O)c2ccco2)CC1 | -5.21
24 | CCCCn1c(=N)c(C(N)=S)cc2c(=O)n3cccc(C)c3nc21 | -3.19
25 | Cc1c(Br)c(C(=O)N2CCN3CCCC3C2)nn1C (stereo not shown) | -1.55

Row | Structure (SMILES) | % Inhibition @ 10 uM [%]
26 | Cc1c2cnn(CC(=O)N3CCN(C4CCCCC4)CC3)c(=O)c2c(C)n1Cc1ccccc1Cl | 2.84
27 | COc1ccccc1C(=O)NC(C)CC(C)C (stereo not shown) | 2.48
28 | O=C(NCCCn1ccnc1)c1nc(Cn2c(C(F)(F)F)nc3ccccc32)no1 | 0.883
29 | CCOP(=O)(OCC)C1(C#N)CC1 | 3.25
30 | CN(C)S(=O)(=O)n1cc(/C=C(\NC(=O)c2ccccc2F)C(=O)NCCCO)c2ccccc21 | -0.0235
31 | COCCNC(=O)c1cc2ccc3cccnc3c2[nH]1 | 0.36
32 | COc1ccc(CC(=O)NCC2COc3ccccc3O2)cc1OC (stereo not shown) | -3.41
33 | COc1ccc(OC)c(CN2CCN(C(=O)Cc3ccccc3)CC2)c1 | -7.09
34 | COC(=O)c1ccc(/C=C2\N=C(c3ccc(C(C)(C)C)cc3)OC2=O)cc1 | 6.11
35 | CC(C(=O)N1CCN(C(=O)c2ccco2)CC1)n1sc2ccccc2c1=O (stereo not shown) | -4.59
36 | NC(=O)/C(=C\c1ccco1)NC(=O)c1ccccc1 | 4.78
37 | Cc1ccc(Cn2c(=O)c3cccnc3n(CC(N)=O)c2=O)cc1 | -5.27
38 | COc1ccc2ncc(C(=O)c3ccccc3)c(N3CCC(C)CC3)c2c1 | -2.67
39 | Cc1nn(CC(=O)NCCc2c[nH]c3ccccc23)c(=O)c2nn(-c3ccccc3)c(C)c12 | -0.846
40 | CCc1ccc(-c2nc(CSCC(=O)N3CCN(c4ccccn4)CC3)c(C)o2)cc1 | 2.37
41 | CCc1ccccc1N(CC(=O)NC(C)(C)C)S(C)(=O)=O | 1.52
42 | COc1ccc(OC)c2c1CC[C@@H]1NC(=O)CO[C@H]21 | -2.32
43 | C=C(CC(CN1CCOCC1)C(=O)c1ccccc1)C(=O)c1ccccc1 (stereo not shown) | -0.661
44 | O=C(CSc1nc2c(oc3ccccc32)c(=O)n1Cc1ccco1)NCc1ccccc1 | 2.33
45 | Nc1c(C(=O)Nc2ccccc2)sc2ncc([N+](=O)[O-])cc12 | -3.16
46 | O=C(O)c1ccccc1NC(=O)c1ccc([N+](=O)[O-])cc1C(=O)O | 2.5
47 | COCCNCc1c(C(=O)O)n(Cc2ccc(F)cc2)c2cc(C)ccc12 | -6.92
48 | O=C(CCCC(=O)Nc1cccc2ccccc12)Nc1cccc2ccccc12 | 3.32
49 | O=C(NCCCN1CCCC1=O)c1cnn(-c2ccccc2)c1-n1cccc1 | -3.58
